US20190218277A1 (Chugai, published 2019)

Assays:
[1] = biological target: T1, Recombinant soluble E protein (0.8E-His) from DENV-2 (DENV-2)
T1 construct: also called DENV-2 E protein; DV2

[2] = biological target: T2, Recombinant soluble E protein (0.8E-His) from DENV-3 (DENV-3)
T2 construct: also called DENV-3 E protein; DV3

[3] = biological target: T3, Recombinant soluble E protein (0.8E-His) from DENV-4 (DENV-4)
T3 construct: also called DENV-4 E protein; DV4

[4] = biological target: T2, Recombinant soluble E protein …; remark: listed apart in the source
[5] = biological target: T2, Recombinant soluble E protein …; remark: listed apart in the source
[6] = biological target: T2, Recombinant soluble E protein …; remark: listed apart in the source

Row | Binder | Kd [1] | Kd [2] | Kd [3] | Kd [4] | Kd [5] | Kd [6]
1 | DG_3CH953-SG182/3CL-SK1 (antibody, human IgG1, kappa) heavy: QVQLVQSGPDVEKPGASVKVSCKASGYTFTSNYIHWVRQAPGQGLEWMGVINPRGGSRRSAQKFQGRITMTRDTSTSTVYMELSSLRSEDTAVYYCARGGRALFYDSYTTPFDGGSWWFDPWGQGSLVTVSSASTKGPSVFPLAPSSKSTSGGTAALGCLVKDYFPEPVTVSWNSGALTSGVHTFPAVLQSSGLYSLSSVVTVPSSSLGTQTYICNVNHKPSNTKVDKRV[human IgG1 Fc omitted here] light: DIQLTQSPSSLSASVGDRVTFTCQASQDIRKYLNWYQQKPGKAPKLLIYDASNLKTGVPSRFSGSGSGTDFTFTISSLQPEDVATYYCQQFDDLPITFGQGTRLQIKRTVAAPSVFIFPPSDEQLKSGTASVVCLLNNFYPREAKVQWKVDNALQSGNSQESVTEQDSKDSTYSLSSTLTLSKADYEKHKVYACEVTHQGLSSPVTKSFNRGEC | 0.776 nM | 0.136 nM | 6.2 nM | 0.985 pM |  | 
2 | DG_3CH1000-SG182/3CL-SK1 (antibody, human IgG1, kappa) heavy: QVQLVQSGPDVEKPGASVKVSCKASGYTFTSYYMHWVRQAPGQGLEWMGVINPRGGSRRSAQKFQGRITMTRDTSTSTVYMELSSLRSEDTAVYYCARGGRALFYDSYTTPFDGGSWWFDPWGQGSLVTVSSASTKGPSVFPLAPSSKSTSGGTAALGCLVKDYFPEPVTVSWNSGALTSGVHTFPAVLQSSGLYSLSSVVTVPSSSLGTQTYICNVNHKPSNTKVDKRV[human IgG1 Fc omitted here] light: DIQLTQSPSSLSASVGDRVTFTCQASQDIRKYLNWYQQKPGKAPKLLIYDASNLKTGVPSRFSGSGSGTDFTFTISSLQPEDVATYYCQQFDDLPITFGQGTRLQIKRTVAAPSVFIFPPSDEQLKSGTASVVCLLNNFYPREAKVQWKVDNALQSGNSQESVTEQDSKDSTYSLSSTLTLSKADYEKHKVYACEVTHQGLSSPVTKSFNRGEC |  |  |  | 3.49 pM |  | 
3 | DG_3CH1047-SG182/3CL-SK1 (antibody, human IgG1, kappa, also called 3Cam2) heavy: QVQLVQSGPDVEKPGASVKVSCKASGYTFTSYYMHWVRQAPGQGLEWMGVINPRGGSRRSAQKFQGRITMTRDTSTSTVYMELSSLRSEDTAVYYCARGGEALFYDSYTTPFDGGSWWFDPWGQGSLVTVSSASTKGPSVFPLAPSSKSTSGGTAALGCLVKDYFPEPVTVSWNSGALTSGVHTFPAVLQSSGLYSLSSVVTVPSSSLGTQTYICNVNHKPSNTKVDKRV[human IgG1 Fc omitted here] light: DIQLTQSPSSLSASVGDRVTFTCQASQDIRKYLNWYQQKPGKAPKLLIYDASNLKTGVPSRFSGSGSGTDFTFTISSLQPEDVATYYCQQFDDLPITFGQGTRLQIKRTVAAPSVFIFPPSDEQLKSGTASVVCLLNNFYPREAKVQWKVDNALQSGNSQESVTEQDSKDSTYSLSSTLTLSKADYEKHKVYACEVTHQGLSSPVTKSFNRGEC | 0.843 nM |  | 5.61 nM |  | < 0.1 nM | < 0.1 nM

Where two headings read alike, the source gives them in different places.
